What all share (experiment): glycan array binding signal (z-score within array); higher = stronger binding
Holding throughout (settings): glycan notation: IUPAC condensed, linker removed

Experiment [1] concerns the target Gal(b1-4)GlcNAc(b1-2)[Gal(b1-4)GlcNAc(b1-6)]Man(a1-6)[Gal(b1-4)GlcNAc(b1-2)Man(a1-3)]Man(b1-4)GlcNAc(b1-4)[Fuc(a1-6)]GlcNAc. The method, boiled down:
(§1)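 Negative Z-scores can be read as non-binding. The Z-score is calculated within each array and then averaged across arrays of one protein sequence at different concentrations or buffers and across linkers. Arrays, 3228 in all, were curated from the Consortium for Functional Glycomics database and kept only where the protein sequence was available.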

Experiment [2] addresses Gal(b1-4)GlcNAc(b1-2)[Gal(b1-4)GlcNAc(b1-6)]Man(a1-6)[GlcNAc(b1-4)][Gal(b1-4)GlcNAc(b1-2)Man(a1-3)]Man(b1-4)GlcNAc(b1-4)GlcNAc. The method, boiled down:
as §1

Experiment [3] concerns the target Gal(b1-4)GlcNAc(b1-2)[Gal(b1-4)GlcNAc(b1-6)]Man(a1-6)[GlcNAc(b1-4)][Gal(b1-4)GlcNAc(b1-2)[Gal(b1-4)GlcNAc(b1-4)]Man(a1-3)]Man(b1-4)GlcNAc(b1-4)[Fuc(a1-6)]GlcNAc. The method, boiled down: as §1
For experiment [4], the target named is Gal(b1-4)GlcNAc(b1-3)Gal(b1-3)GalNAc. The method, boiled down:
as §1

Experiment [5] concerns the target Gal(b1-4)GlcNAc(b1-3)Gal(b1-3)GlcNAc. The method, boiled down: as §1
Experiment [6] concerns the target Gal(b1-4)GlcNAc(b1-3)Gal(b1-4)Glc. The method, boiled down: as §1
The target of experiment [7] is Gal(b1-4)GlcNAc(b1-3)Gal(b1-4)GlcNAc. The method, boiled down: as §1
Experiment [8] addresses Gal(b1-4)GlcNAc(b1-3)Gal(b1-4)GlcNAc(b1-2)Man(a1-3)[Gal(b1-4)GlcNAc(b1-3)Gal(b1-4)GlcNAc(b1-2)Man(a1-6)]Man(b1-4)GlcNAc(b1-4)GlcNAc. The method, boiled down:
as §1

The target in experiment [9] is Gal(b1-4)GlcNAc(b1-3)Gal(b1-4)GlcNAc(b1-2)Man(a1-3)[Gal(b1-4)GlcNAc(b1-3)Gal(b1-4)GlcNAc(b1-2)Man(a1-6)]Man(b1-4)GlcNAc(b1-4)[Fuc(a1-6)]GlcNAc. The method, boiled down:
as §1

Experiment [10] addresses Gal(b1-4)GlcNAc(b1-3)Gal(b1-4)GlcNAc(b1-2)[Gal(b1-4)GlcNAc(b1-3)Gal(b1-4)GlcNAc(b1-6)]Man(a1-6)[Gal(b1-4)GlcNAc(b1-3)Gal(b1-4)GlcNAc(b1-2)Man(a1-3)]Man(b1-4)GlcNAc(b1-4)GlcNAc. The method, boiled down: as §1
The target of experiment [11] is Gal(b1-4)GlcNAc(b1-3)Gal(b1-4)GlcNAc(b1-2)[Gal(b1-4)GlcNAc(b1-3)Gal(b1-4)GlcNAc(b1-6)]Man(a1-6)[Gal(b1-4)GlcNAc(b1-3)Gal(b1-4)GlcNAc(b1-2)Man(a1-3)]Man(b1-4)GlcNAc(b1-4)[Fuc(a1-6)]GlcNAc. The method, boiled down:
as §1

The target of experiment [12] is Gal(b1-4)GlcNAc(b1-3)Gal(b1-4)GlcNAc(b1-3)Gal(b1-4)GlcNAc. The method, boiled down: as §1
The target in experiment [13] is Gal(b1-4)GlcNAc(b1-3)Gal(b1-4)GlcNAc(b1-3)Gal(b1-4)GlcNAc(b1-2)Man(a1-3)[Gal(b1-4)GlcNAc(b1-3)Gal(b1-4)GlcNAc(b1-3)Gal(b1-4)GlcNAc(b1-2)Man(a1-6)]Man(b1-4)GlcNAc(b1-4)GlcNAc. The method, boiled down: as §1
Experiment [14] addresses Gal(b1-4)GlcNAc(b1-3)Gal(b1-4)GlcNAc(b1-3)Gal(b1-4)GlcNAc(b1-2)Man(a1-3)[Gal(b1-4)GlcNAc(b1-3)Gal(b1-4)GlcNAc(b1-3)Gal(b1-4)GlcNAc(b1-2)Man(a1-6)]Man(b1-4)GlcNAc(b1-4)[Fuc(a1-6)]GlcNAc. The method, boiled down: as §1
In experiment [15] the target is Gal(b1-4)GlcNAc(b1-3)Gal(b1-4)GlcNAc(b1-3)Gal(b1-4)GlcNAc(b1-2)[Gal(b1-4)GlcNAc(b1-3)Gal(b1-4)GlcNAc(b1-3)Gal(b1-4)GlcNAc(b1-6)]Man(a1-6)[Gal(b1-4)GlcNAc(b1-3)Gal(b1-4)GlcNAc(b1-3)Gal(b1-4)GlcNAc(b1-2)Man(a1-3)]Man(b1-4)GlcNAc(b1-4)[Fuc(a1-6)]GlcNAc. The method, boiled down: as §1
For experiment [16], the target named is Gal(b1-4)GlcNAc(b1-3)Gal(b1-4)GlcNAc(b1-3)Gal(b1-4)GlcNAc(b1-3)Gal(b1-4)GlcNAc(b1-2)Man(a1-3)[Gal(b1-4)GlcNAc(b1-3)Gal(b1-4)GlcNAc(b1-3)Gal(b1-4)GlcNAc(b1-3)Gal(b1-4)GlcNAc(b1-2)Man(a1-6)]Man(b1-4)GlcNAc(b1-4)GlcNAc. The method, boiled down:
as §1

Experiment [17] concerns the target Gal(b1-4)GlcNAc(b1-3)Gal(b1-4)GlcNAc(b1-3)Gal(b1-4)GlcNAc(b1-3)Gal(b1-4)GlcNAc(b1-2)Man(a1-3)[Gal(b1-4)GlcNAc(b1-3)Gal(b1-4)GlcNAc(b1-3)Gal(b1-4)GlcNAc(b1-3)Gal(b1-4)GlcNAc(b1-2)Man(a1-6)]Man(b1-4)GlcNAc(b1-4)[Fuc(a1-6)]GlcNAc. The method, boiled down:
as §1

For experiment [18], the target named is Gal(b1-4)GlcNAc(b1-3)Gal(b1-4)GlcNAc(b1-3)Gal(b1-4)GlcNAc(b1-3)Gal(b1-4)GlcNAc(b1-2)[Gal(b1-4)GlcNAc(b1-3)Gal(b1-4)GlcNAc(b1-3)Gal(b1-4)GlcNAc(b1-3)Gal(b1-4)GlcNAc(b1-6)]Man(a1-6)[Gal(b1-4)GlcNAc(b1-3)Gal(b1-4)GlcNAc(b1-3)Gal(b1-4)GlcNAc(b1-3)Gal(b1-4)GlcNAc(b1-2)Man(a1-3)]Man(b1-4)GlcNAc(b1-4)[Fuc(a1-6)]GlcNAc. The method, boiled down:
as §1

The target in experiment [19] is Gal(b1-4)GlcNAc(b1-3)Gal(b1-4)GlcNAc(b1-3)Gal(b1-4)GlcNAc(b1-3)Gal(b1-4)GlcNAc(b1-3)Gal(b1-4)GlcNAc(b1-2)Man(a1-3)[Gal(b1-4)GlcNAc(b1-3)Gal(b1-4)GlcNAc(b1-3)Gal(b1-4)GlcNAc(b1-3)Gal(b1-4)GlcNAc(b1-3)Gal(b1-4)GlcNAc(b1-2)Man(a1-6)]Man(b1-4)GlcNAc(b1-4)GlcNAc. The method, boiled down:
as §1

For experiment [20], the target named is Gal(b1-4)GlcNAc(b1-3)Gal(b1-4)GlcNAc(b1-3)Gal(b1-4)GlcNAc(b1-3)Gal(b1-4)GlcNAc(b1-3)Gal(b1-4)GlcNAc(b1-2)Man(a1-3)[Gal(b1-4)GlcNAc(b1-3)Gal(b1-4)GlcNAc(b1-3)Gal(b1-4)GlcNAc(b1-3)Gal(b1-4)GlcNAc(b1-3)Gal(b1-4)GlcNAc(b1-2)Man(a1-6)]Man(b1-4)GlcNAc(b1-4)[Fuc(a1-6)]GlcNAc. The method, boiled down:
as §1

In experiment [21] the target is Gal(b1-4)GlcNAc(b1-3)Gal(b1-4)GlcNAc(b1-3)Gal(b1-4)GlcNAc(b1-3)Gal(b1-4)GlcNAc(b1-3)Gal(b1-4)GlcNAc(b1-2)[Gal(b1-4)GlcNAc(b1-3)Gal(b1-4)GlcNAc(b1-3)Gal(b1-4)GlcNAc(b1-3)Gal(b1-4)GlcNAc(b1-3)Gal(b1-4)GlcNAc(b1-6)]Man(a1-6)[Gal(b1-4)GlcNAc(b1-3)Gal(b1-4)GlcNAc(b1-3)Gal(b1-4)GlcNAc(b1-3)Gal(b1-4)GlcNAc(b1-3)Gal(b1-4)GlcNAc(b1-2)Man(a1-3)]Man(b1-4)GlcNAc(b1-4)[Fuc(a1-6)]GlcNAc. The method, boiled down:
as §1

Experiment [22] addresses Gal(b1-4)GlcNAc(b1-3)Gal(b1-4)GlcNAc(b1-3)Gal(b1-4)GlcNAc(b1-3)Gal(b1-4)GlcNAc(b1-3)Gal(b1-4)GlcNAc(b1-3)Gal(b1-4)GlcNAc(b1-2)Man(a1-3)[Gal(b1-4)GlcNAc(b1-3)Gal(b1-4)GlcNAc(b1-3)Gal(b1-4)GlcNAc(b1-3)Gal(b1-4)GlcNAc(b1-3)Gal(b1-4)GlcNAc(b1-3)Gal(b1-4)GlcNAc(b1-2)Man(a1-6)]Man(b1-4)GlcNAc(b1-4)GlcNAc. The method, boiled down: as §1
The target in experiment [23] is Gal(b1-4)GlcNAc(b1-3)Gal(b1-4)GlcNAc(b1-3)GalNAc. The method, boiled down:
as §1

Some of the results follow.

B1: EPL1 (Trichoderma atroviride), A0PCX2 (protein)
chain: MQLSNLFKLALFTAAVSADTVSYDTGYDDASRSLTVVSCSDGTNGLITRYHWQTQGQIPRFPYIGGAQAVAGWNSPNCGTCWKLTYSGKTIYVLAIDHTAAGFNIGLDAMNALTNGNAVALGRVSATASQVAVSNCGL
Consider B1, for which the “glycan array binding signal (z-score)” value is 0.663 in experiment [1]; -0.501 in [2]; 0.025 in experiment [3]; -0.243 in experiment [4]; -0.08 in experiment [5]; -0.362 in [6]. For the same molecule, the “glycan array binding signal (z-score)” value is -0.261 in [7]; 0.321 in experiment [8]; 0.138 in experiment [9]; -0.13 in experiment [10]; 0.124 in experiment [11]; 0.071 in experiment [12]. Moreover, the “glycan array binding signal (z-score)” value in [13] is 0.34; in experiment [14] it was -0.02; in [15], 0.431; in experiment [16] it was -0.381; in experiment [17] it was 0.094; in experiment [18], 0.694. Besides, the “glycan array binding signal (z-score)” value in experiment [19] was 0.259; in experiment [20] it was -0.017; in experiment [21] it was 0.457; in experiment [22], 0.216; in [23], 0.049.

The record behind these values is the supplement of paper PMC8728848.
